Experiments:
[1] = target: endogenous HER2 and TROP2 on tumor cells expressing both; assay: cell-based or functional assay
[2] = target: endogenous HER2 and TROP2 on tumor cells expressing both; assay: flow cytometry whole cell binding, NCI-H441 cells (TROP2 very high, HER2 very low)
[3] = target: endogenous HER2 and TROP2 on tumor cells expressing both; assay: flow cytometry whole cell binding, SKBR3 cells (HER2 and TROP2 both expressed)
[4] = target: endogenous HER2 and TROP2 on tumor cells expressing both; assay: flow cytometry whole cell binding, HCC202 cells (HER2 and TROP2 both expressed)
[5] = target: endogenous HER2 and TROP2 on tumor cells expressing both; assay: cell-based or functional assay; remark: listed apart in the source

B1: 1H11-hv8+11D5_Fc (bispecific antibody)
chain: EVQLVESGGGLVQPGGSLRLSCAASGGTFSRYIMGWFRQAPGKEREFVSTISGSGGSTYYADSVKGRFTISRDNSKNTLYLQMNSLRAEDTAVYYCASTFYSTTYVAQRDARDYAYWGQGTQVTVSSGSGGSGGSGGSGQVQLVESGGGVVQPGRSLRLSCAASGSTFSSLAMHWVRQAPGKERELVAAISYSGGYTYYADSVKGRFTISRDNSKNTLYLQMNSLRAEDTAVYYCAASSIFIGAYDYWGQGTLVTVSS[here human IgG1 Fc with C220S (EU numbers) without letters]
With B1 the IC50, nM, Killing of HCC202 cells by 2nd Ab-MMAE [1] was 0.11 nM, the IC50, nM, Killing of SKBR3 cells by 2nd Ab-MMAE [1] was 0.131 nM and the EC50 [2] was 5.3 nM.

B2: 1H11-hv8_Fc_11D5 (bispecific antibody)
chain: EVQLVESGGGLVQPGGSLRLSCAASGGTFSRYIMGWFRQAPGKEREFVSTISGSGGSTYYADSVKGRFTISRDNSKNTLYLQMNSLRAEDTAVYYCASTFYSTTYVAQRDARDYAYWGQGTQVTVSS[here human IgG1 Fc with C220S (EU numbers) without letters]GSGGSGGSGGSGGSGQVQLVESGGGVVQPGRSLRLSCAASGSTFSSLAMHWVRQAPGKERELVAAISYSGGYTYYADSVKGRFTISRDNSKNTLYLQMNSLRAEDTAVYYCAASSIFIGAYDYWGQGTLVTVSS
In the case of B2, the IC50, nM, Killing of HCC202 cells by 2nd Ab-MMAE [1] is reported as 0.08 nM, the IC50, nM, Killing of SKBR3 cells by 2nd Ab-MMAE [1] is reported as 0.101 nM and the EC50 [3] is reported as 0.99 nM. It also gave an EC50 [2] of 2.58 nM and an EC50 [4] of 1.58 nM.

B3: 1H11-hv8_Fc_11D5-2C_MMAE (protein)
chain: B2 chain
modifications: here or on the partner: vc-MMAE conjugated to the hinge cysteines (2 Cysteines in each hinge region); DAR 3.7
B3 showed an IC50, nM, in killing assay, A431 cells [5] of 0.17 nM, an IC50, nM, in killing assay, AU-565 cells [5] of 0.0198 nM and an IC50, nM, in killing assay, Colo205 cells [5] of 0.33 nM. For the same binder, the IC50, nM, in killing assay, N87 cells [5] was 0.04 nM, the IC50, nM, in killing assay, NCI-H441 cells [5] was 0.046 nM and the IC50, nM, in killing assay, NCI-H1975 cells [5] was 0.24 nM. The IC50, nM, in killing assay, OE-19 cells [5] was 0.069 nM, the IC50, nM, in killing assay, SK-OV3 cells [5] was 0.062 nM and the IC50, nM, in killing assay, T-47D cells [5] was 0.22 nM.

— patent US20260176373A1
